From publication PMC13186710, “Structural mechanism for noncanonical GPCR signaling in the Hedgehog pathway” (Nature Structural & Molecular Biology, 2026)

Molecular target: WT, nonmyristoylated mouse PKA catalytic subunit alpha (mouse, UniProt P05132)
Test: HDX-MS; complex disulfide-trapped (SMO L637C to PKA-C C199) and gel-filtered, against the free proteins; 20 mM HEPES pH 8.0, 150 mM NaCl, 0.025% GDN, 1 mM ATP, 10 mM MgCl2, 25 °C; 1, 5, 10 min; SAG21k for pSMO, KAAD cyclopamine for nonphosphorylated SMO
Conditions: both partners purified

Row | binding result | Binder
1 | binds | GRK2-phosphorylated FLAG-tagged mouse Smoothened ([…]) L637C (receptor, GRK2/3 phosphorylation sites pS560, pS594, pT597, pS599, pS615, pS642, pT644, pT648, Smoothened (SMO), mouse, […], P+2 leucine changed to cysteine; the HDX-MS and cryo-EM samples were; also called pSMO-L637C; SMO L637C; not shown: FLAG, N-terminal, kept) not shown
2 | binds | Nonphosphorylated FLAG-tagged mouse Smoothened ([…]) L637C (receptor, Smoothened (SMO), mouse, […], P+2 leucine changed to cysteine; HDX-MS runs with nonphosphorylated SMO were done with the inverse agonist KAAD cyclopamine (1 uM); also called nonphosphorylated SMO-L637C; SMO (in SMO-PKA-C versus pSMO-PKA-C); not shown: FLAG, N-terminal, kept) not shown
